The other results are listed elsewhere or left out.
System: HSkMC (human skeletal muscle cells)
Assay: cytotoxicity call (relative viability < 0.9)
Conditions: 10 µM

SMILES	cytotoxicity call
CC(C)NC(=O)N(C)C[C@H]1Oc2ccc(NS(=O)(=O)c3ccccc3)cc2C(=O)N([C@H](C)CO)C[C@H]1C	inactive
CC(C)[C@@H](CS(=O)(=O)C(C)C)N1C(=O)[C@@](C)(CC(=O)O)C[C@H](c2cccc(Cl)c2)[C@H]1c1ccc(Cl)cc1	inactive
Cc1cn2c(nc1=O)O[C@@H]1C[C@H]2O[C@@H]1CO	inactive
COc1ccccc1CNC(=O)C[C@H]1C[C@@H]2c3cc(NC(=O)Nc4ccc(C(F)(F)F)cc4)ccc3O[C@@H]2[C@@H](CO)O1	inactive
C[C@@H]1CN([C@H](C)CO)C(=O)Cc2cc(NC(=O)CCC(F)(F)F)ccc2O[C@H]1CN(C)Cc1ccc(C(=O)Nc2ccccc2N)cc1	inactive
COCC(=O)N1CC[C@]2(CC1)CN([C@@H](CO)c1[nH]c3cc(ccc3c12)OC)S(=O)(=O)C	inactive
C[C@H]1CN([C@@H](C)CO)S(=O)(=O)c2ccc(C#CC3(O)CCCC3)cc2O[C@@H]1CN(C)C(=O)c1ccncc1	inactive
COc1ccc(NC(=O)Nc2ccc3c(c2)C(=O)N([C@H](C)CO)C[C@H](C)[C@@H](CN(C)CC2CC2)OCCCC[C@@H](C)O3)cc1	inactive
CN(C)Cc1c(C(=O)N/N=C/c2ccncc2)nnn1-c1nonc1N	inactive
C[C@H](CO)N1C[C@H](C)[C@H](CN(C)C(=O)NC2CCCCC2)Oc2c(NC(=O)Nc3cccc4ccccc34)cccc2C1=O	active
C[C@@H]1CN([C@H](C)CO)C(=O)c2c(c3ccccc3n2C)-c2ccccc2CO[C@H]1CN(C)S(C)(=O)=O	inactive
CC(C)NC(=O)N(C)C[C@H]1Oc2ccc(NC(=O)NC3CCCCC3)cc2C(=O)N([C@@H](C)CO)C[C@@H]1C	inactive
C[C@H](CO)N1C[C@H](C)[C@H](CN(C)Cc2ccncc2)Oc2ccc(NS(=O)(=O)c3ccc(F)cc3)cc2CC1=O	inactive
COc1ccc(NC(=O)N(C)C[C@@H]2Oc3c(NS(C)(=O)=O)cccc3C(=O)N([C@@H](C)CO)C[C@H]2C)cc1	inactive
O=C(NO)c1ccc(C(=O)N/N=C/c2ccc(B(O)O)cc2)cc1	inactive
C[C@@H]1CN([C@@H](C)CO)C(=O)c2cc(NC(=O)Nc3ccc(C(F)(F)F)cc3)ccc2O[C@@H]1CN(C)Cc1ccc(C(=O)O)cc1	inactive
O=C(CN1CCOCC1)NCC[C@@H]1CC[C@@H](NC(=O)c2ccccc2F)[C@H](CO)O1	inactive
COc1ccc(CN(C)C[C@H]2OCCCC[C@@H](C)Oc3ccc(NC(=O)Nc4ccccc4)cc3C(=O)N([C@@H](C)CO)C[C@H]2C)cc1	inactive
CN(C)CCCNC(=O)C[C@@H]1CC[C@H]2[C@@H](COc3ccc(NS(C)(=O)=O)cc3C(=O)N2C)O1	inactive
C[C@H](CO)N1C[C@H](C)[C@H](CN(C)S(=O)(=O)c2cccs2)Oc2c(NS(=O)(=O)c3cccs3)cccc2C1=O	inactive

SMILES	cytotoxicity call
Cc1noc(C)c1S(=O)(=O)Nc1ccc2c(c1)CC(=O)N([C@H](C)CO)C[C@@H](C)[C@H](CN(C)S(=O)(=O)c1ccc(F)cc1)O2	inactive
C[C@@H]1CN([C@H](C)CO)C(=O)c2cc(NC(=O)Nc3ccc(C(F)(F)F)cc3)ccc2O[C@@H](C)CCCCO[C@@H]1CN(C)Cc1ccc(C(=O)O)cc1	inactive
C[C@@H]1CN([C@H](C)CO)C(=O)c2cc(NC(=O)Nc3cccc4ccccc34)ccc2O[C@@H]1CN(C)C(=O)NC1CCCCC1	inactive
NC(=O)c1nnn(Cc2ccccc2)c1N	inactive
C[C@H]1CN([C@@H](C)CO)C(=O)Cc2cc(NS(=O)(=O)c3cn(C)cn3)ccc2O[C@@H]1CN(C)Cc1ccncc1	inactive
C[C@@H]1CN([C@H](C)CO)C(=O)c2cc(N(C)C)ccc2O[C@@H](C)CCCCO[C@@H]1CN(C)S(C)(=O)=O	inactive
C[C@@H]1CCCCO[C@H](CN(C)C(=O)Nc2ccccc2)[C@H](C)CN([C@@H](C)CO)C(=O)c2cc(NS(=O)(=O)c3ccc(F)cc3)ccc2O1	inactive
N[C@@]1(C(=O)O)CS(=O)(=O)[C@H]2[C@H](C(=O)O)[C@H]21	inactive
C[C@@H]1CN([C@H](C)CO)C(=O)c2cc(NS(C)(=O)=O)ccc2O[C@H]1CN(C)C(=O)Nc1ccc2c(c1)OCO2	inactive
COc1ccc(NC(=O)Nc2cccc3c2O[C@@H](CN(C)C(=O)Nc2ccc(C(F)(F)F)cc2)[C@H](C)CN([C@@H](C)CO)C3=O)cc1	inactive
CC(C)(C)S(=O)N1Cc2cc(C(=O)N3CCN(Cc4ccccc4)CC3)nc(-c3cccc(-c4cc5ccccc5o4)c3)c2[C@H]1CCO (stereo not given in full)	active
O=C(C[C@@H]1CC[C@@H]2[C@H](COC[C@H](O)CN2S(=O)(=O)c2ccccc2)O1)NCc1ccc2c(c1)OCO2	inactive
C[C@@H]1CCCCO[C@H](CN(C)C(=O)c2ccccc2)[C@H](C)CN([C@H](C)CO)C(=O)c2cc(NC(=O)c3ccccc3)ccc2O1	inactive
Cn1nnc2c(Cl)ncnc21	inactive
Cc1noc(C)c1NC(=O)Nc1ccc2c(c1)C(=O)N([C@H](C)CO)C[C@H](C)[C@H](CN(C)C(=O)c1ccccc1)OCCCC[C@@H](C)O2	inactive
C[C@H]1CN([C@@H](C)CO)C(=O)c2cccc(NC(=O)Nc3ccc(C(F)(F)F)cc3)c2O[C@@H]1CN(C)Cc1ccccc1	active
COc1ccc(NC(=O)N(C)C[C@@H]2OCCCC[C@H](C)Oc3ccc(NC(=O)Nc4ccc(F)cc4)cc3C(=O)N([C@H](C)CO)C[C@@H]2C)cc1	inactive
COc1ccc(C#Cc2ccc3c(c2)[C@H]2[C@H](CCN2C(=O)Nc2ccc(C(F)(F)F)cc2)[C@H](CO)N3C)cc1	inactive
Cc1ccc(S(=O)(=O)N(C)C[C@@H]2OCCCC[C@H](C)Oc3ccc(NS(=O)(=O)c4ccc(Cl)cc4)cc3C(=O)N([C@@H](C)CO)C[C@@H]2C)cc1	inactive
CN(CCN)c1ccccc1	inactive

From the antibiotic and cytotoxicity screens of Wong et al. (2023)
